Laboratory results published in the supplement of paper PMC4604168 (melanoma cell lines).
Some of the results follow. Single values are uncertain, as repeats are few or missing.

These molecules were tested on WM115 (assay: cell count relative to DMSO control; melanoma cells; higher = more viable cells). Conditions: library dose: low library concentration; 72 h; first compound 0.4 µM.
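Also: cell number obtained by counting DAPI-stained nuclei in high-throughput microscope images with image analysis software, screen run in 1,536-well plates.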

Row | SMILES | cell count
1 | C[C@@H](N)c1ccc(C(=O)Nc2ccnc3[nH]ccc23)cc1 + Nc1nc(F)nc2c1ncn2[C@@H]1O[C@H](CO)[C@@H](O)[C@@H]1O [fludarabine] (partner dose 0.2 µM) | 98.3%
2 | C[C@@H](N)c1ccc(C(=O)Nc2ccnc3[nH]ccc23)cc1 + Clc1ccc(Nc2nnc(Cc3ccncc3)c3ccccc23)cc1 [vatalanib] (partner dose 2 µM) | 101%
3 | C[C@@H](N)c1ccc(C(=O)Nc2ccnc3[nH]ccc23)cc1 + O=C(O)C(=O)Nc1sc2c(c1C(=O)O)CCNC2 [TCS401] (partner dose 1.66667 µM) | 108%
4 | Cn1sc(=O)n(Cc2ccccc2)c1=O + CO[C@H]1C[C@@H]2CC[C@@H](C)[C@@](O)(O2)C(=O)C(=O)N2CCCC[C@H]2C(=O)O[C@H]([C@H](C)C[C@@H]2CC[C@@H](OCCO)[C@H](OC)C2)CC(=O)[C@H](C)/C=C(\C)[C@@H](O)[C@@H](OC)C(=O)[C@H](C)C[C@H](C)/C=C/C=C/C=C/1C [everolimus] (partner dose 0.02 µM) | 81.7%
5 | CCCCCCCCCCCCCCCCCCOP(=O)([O-])OC1CC[N+](C)(C)CC1 [Perifosine] + Cc1cc(N2CCOCC2)cc2[nH]c(-c3c(NC[C@@H](O)c4cccc(Cl)c4)cc[nH]c3=O)nc12 [BMS536924] (partner dose 0.2 µM) | 116%
6 | C[C@@H](N)c1ccc(C(=O)Nc2ccnc3[nH]ccc23)cc1 + CC(=O)O[C@@]12CO[C@@H]1C[C@H](O)[C@@]1(C)C(=O)[C@H](O)C3=C(C)[C@@H](OC(=O)[C@H](O)[C@@H](NC(=O)OC(C)(C)C)c4ccccc4)C[C@@](O)([C@@H](OC(=O)c4ccccc4)[C@H]21)C3(C)C [Docetaxel] (partner dose 0.0001 µM) | 65.8%
7 | Cn1sc(=O)n(Cc2ccccc2)c1=O + c1cc(-c2cnn3cc(-c4ccc(OCCN5CCCCC5)cc4)cnc23)ccn1 [Dorsomorphin] (partner dose 0.4 µM) | 99.1%
8 | Cn1sc(=O)n(Cc2ccccc2)c1=O + COCC[n+]1c2c(n(Cc3cnccn3)c1C)C(=O)c1ccccc1C2=O [YM155] (partner dose 0.0004 µM) | 102%
9 | Cn1sc(=O)n(Cc2ccccc2)c1=O + Nc1nc(F)nc2c1ncn2[C@@H]1O[C@H](CO)[C@@H](O)[C@@H]1O [fludarabine] (partner dose 0.2 µM) | 90.2%
10 | CCCCCCCCCCCCCCCCCCOP(=O)([O-])OC1CC[N+](C)(C)CC1 [Perifosine] + CC(=O)O[C@@]12CO[C@@H]1C[C@H](O)[C@@]1(C)C(=O)[C@H](O)C3=C(C)[C@@H](OC(=O)[C@H](O)[C@@H](NC(=O)OC(C)(C)C)c4ccccc4)C[C@@](O)([C@@H](OC(=O)c4ccccc4)[C@H]21)C3(C)C [Docetaxel] (partner dose 0.0001 µM) | 69.4%
11 | CCCCCCCCCCCCCCCCCCOP(=O)([O-])OC1CC[N+](C)(C)CC1 [Perifosine] + C=C(c1ccc(C(=O)O)cc1)c1cc2c(cc1C)C(C)(C)CCC2(C)C [Bexarotene] (partner dose 2 µM) | 97.2%
12 | Cn1sc(=O)n(Cc2ccccc2)c1=O + CCN(CC)CCCCNc1ncc2cc(-c3cc(OC)cc(OC)c3)c(NC(=O)NC(C)(C)C)nc2n1 [PD173074] (partner dose 0.1 µM) | 95.4%
13 | C[C@@H](N)c1ccc(C(=O)Nc2ccnc3[nH]ccc23)cc1 + C[C@]1(c2nc3c(C(N)=O)cccc3[nH]2)CCCN1 [Veliparib] (partner dose 1.4 µM) | 102%
14 | CCCCCCCCCCCCCCCCCCOP(=O)([O-])OC1CC[N+](C)(C)CC1 [Perifosine] + CCCCCCCCc1ccc(CCC(N)(CO)CO)cc1 [fingolimod] (partner dose 2 µM) | 106%
15 | C[C@@H](N)c1ccc(C(=O)Nc2ccnc3[nH]ccc23)cc1 + CN(c1ncccc1CNc1nc(Nc2ccc3c(c2)CC(=O)N3)ncc1C(F)(F)F)S(C)(=O)=O [PF562271] (partner dose 0.08 µM) | 95.4%
16 | C[C@@H](N)c1ccc(C(=O)Nc2ccnc3[nH]ccc23)cc1 + COc1cc(Nc2ncc(F)c(Nc3ccc4c(n3)NC(=O)C(C)(C)O4)n2)cc(OC)c1OC [Tamatinib] (partner dose 0.4 µM) | 89.4%
17 | C[C@@H](N)c1ccc(C(=O)Nc2ccnc3[nH]ccc23)cc1 + Cc1ccc(NC(=O)c2cccc(N(C)C)c2)cc1NC(=O)c1ccc(O)cc1 [ZM336372] (partner dose 2 µM) | 108%
18 | CCCCCCCCCCCCCCCCCCOP(=O)([O-])OC1CC[N+](C)(C)CC1 [Perifosine] + Cc1cn(-c2cc(NC(=O)c3ccc(C)c(Nc4nccc(-c5cccnc5)n4)c3)cc(C(F)(F)F)c2)cn1 [nilotinib] (partner dose 0.2 µM) | 113%
19 | C[C@@H](N)c1ccc(C(=O)Nc2ccnc3[nH]ccc23)cc1 + Cn1c(=O)n(-c2ccc(C(C)(C)C#N)cc2)c2c3cc(-c4cnc5ccccc5c4)ccc3ncc21 [NVP-BEZ235] (partner dose 0.004 µM) | 93.3%
20 | Cn1sc(=O)n(Cc2ccccc2)c1=O + CCCCCCCCc1ccc(CCC(N)(CO)CO)cc1 [fingolimod] (partner dose 2 µM) | 99.4%
